Lines with a small IC50 respond at low doses; fits outside the tested doses are given as limits. AUC is the area under the same curve over the 256-fold range up to the top dose, as a fraction; the more sensitive the line, the further below 1. For part of these data: An inferred top dose was derived from the fitted curves, not read from the paper.
What was measured:
Assay in all cases: Viability of human cancer cell lines after 72 h of drug (GDSC screen)
Erlotinib = compound: C#Cc1cccc(Nc2ncnc3cc(OCCOC)c(OCCOC)cc23)c1 [Erlotinib]; conditions: top dose 2 µM
Description: (§1)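 Human cancer cell lines in 384-well plates, medium with 10% serum, drug for 72 h over a 256-fold dose range (nine 2-fold or five 4-fold steps up to the top dose). Adherent lines were fixed and stained with the nucleic acid dye Syto60, suspension lines read with resazurin; signal relative to control wells, capped at 0 and 100%. One two-parameter sigmoid per drug and line, fitted in a mixed model over all curves with the slope shared within a line.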

QL-XI-92 = compound: C=CC(=O)Nc1cc(NC(=O)c2ccc(C)c(NC(=O)c3ccno3)c2)cc(C(F)(F)F)c1 [QL-XI-92]; conditions: top dose 10.24 µM; top dose inferred
Description: as §1

Vinorelbine = compound: CCC1=C[C@@H]2CN(C1)Cc1c([nH]c3ccccc13)[C@@](C(=O)OC)(c1cc3c(cc1OC)N(C)[C@H]1[C@@](O)(C(=O)OC)[C@H](OC(C)=O)[C@]4(CC)C=CCN5CC[C@]31[C@@H]54)C2 [Vinorelbine]; conditions: top dose 0.064 µM; top dose inferred
Description: as §1

XL-184 = compound: COc1cc2nccc(Oc3ccc(NC(=O)C4(C(=O)Nc5ccc(F)cc5)CC4)cc3)c2cc1OC [XL-184]; conditions: top dose 5.12 µM; top dose inferred
Description: as §1

WHI-P97 = compound: COc1cc2ncnc(Nc3cc(Br)c(O)c(Br)c3)c2cc1OC [WHI-P97]; conditions: top dose 10.24 µM; top dose inferred
Description: as §1

Gefitinib = compound: COc1cc2ncnc(Nc3ccc(F)c(Cl)c3)c2cc1OCCCN1CCOCC1 [Gefitinib]; conditions: top dose 0.5 µM
Description: as §1

Phenformin = compound: N=C(N)NC(=N)NCCc1ccccc1 [Phenformin]; conditions: top dose 4000 µM; top dose inferred
Description: as §1

S-Trityl-L-cysteine = compound: N[C@@H](CSC(c1ccccc1)(c1ccccc1)c1ccccc1)C(=O)O [S-Trityl-L-cysteine]; conditions: top dose 5.12 µM; top dose inferred
Description: as §1

EHT 1864 = compound: O=c1cc(CN2CCOCC2)occ1OCCCCCSc1ccnc2cc(C(F)(F)F)ccc12 [EHT 1864]; conditions: top dose 10 µM; top dose inferred
Description: as §1

NU-7441 = compound: O=c1cc(N2CCOCC2)oc2c(-c3cccc4c3sc3ccccc34)cccc12 [NU-7441]; conditions: top dose 2 µM; top dose inferred
Description: as §1

AG-014699 = compound: CNCc1ccc(-c2[nH]c3cc(F)cc4c3c2CCNC4=O)cc1 [AG-014699]; conditions: top dose 5 µM; top dose inferred
Description: as §1

Cell Line	AUC (Erlotinib)	IC50 (Erlotinib)	AUC (QL-XI-92)	IC50 (QL-XI-92)	AUC (Vinorelbine)	IC50 (Vinorelbine)	AUC (XL-184)	IC50 (XL-184)	AUC (WHI-P97)	IC50 (WHI-P97)	AUC (Gefitinib)	IC50 (Gefitinib)	AUC (Phenformin)	IC50 (Phenformin)	AUC (S-Trityl-L-cysteine)	IC50 (S-Trityl-L-cysteine)	AUC (EHT 1864)	IC50 (EHT 1864)	AUC (NU-7441)	IC50 (NU-7441)	AUC (AG-014699)	IC50 (AG-014699)
SK-PN-DW (Ewing sarcoma, adherent)	0.964	> 2 µM	0.974	> 10.2 µM	0.627	0.00906 µM	0.714	1.32 µM	0.946	> 10.2 µM	0.912	> 0.5 µM	0.826	2560 µM	0.756	1.81 µM	0.964	> 10 µM	0.976	> 2 µM		
TC-71 (Ewing sarcoma, adherent)	0.992	> 2 µM	0.985	> 10.2 µM	0.815	0.0278 µM	0.915	> 5.12 µM	0.887	8.11 µM			0.748	1100 µM	0.863	3.26 µM	0.93	> 10 µM	0.981	> 2 µM	0.948	> 5 µM
TE-10 (oesophagus, adherent)	0.922	> 2 µM	0.976	> 10.2 µM	0.516	0.00441 µM	0.945	> 5.12 µM	0.934	> 10.2 µM			0.884	> 4000 µM	0.645	0.796 µM	0.987	> 10 µM	0.964	> 2 µM	0.934	> 5 µM
TE-15 (oesophagus, suspension)	0.88	> 2 µM	0.911	> 10.2 µM	0.506	0.00415 µM	0.879	> 5.12 µM	0.647	1.73 µM			0.494	241 µM	0.646	0.86 µM	0.974	> 10 µM	0.967	> 2 µM	0.976	> 5 µM
no-10 (glioma, adherent)	0.976	> 2 µM	0.934	> 10.2 µM	0.795	0.0377 µM	0.978	> 5.12 µM	0.972	> 10.2 µM	0.98	> 0.5 µM	0.792	2280 µM	0.756	2.11 µM	0.947	> 10 µM			0.972	> 5 µM
no-11 (glioma, adherent)	0.922	> 2 µM	0.885	> 10.2 µM	0.861	> 0.064 µM	0.893	> 5.12 µM	0.98	> 10.2 µM	0.968	> 0.5 µM	0.8	2520 µM	0.826	4.2 µM			0.98	> 2 µM	0.938	> 5 µM

— the supplement of paper PMC4967469
